The supplement of paper PMC7826260
The other results are listed elsewhere or left out. Each Rep nickase domain was tested in vitro on the same pool of single strands at 3 µM enzyme and 37 °C for 1 h; the strands have 90 letters, of which the middle is given. The score is log2 (uncut reads / reads without enzyme); the lower, the more was cut; hits are not called. Reads are scaled to the total; where an enzyme cuts many sequences, the uncut ones exceed 0.

Tested on: T1, Rep nickase domain of tomato yellow leaf curl virus
T1 sequence (protein, residues 1-136, tag omitted): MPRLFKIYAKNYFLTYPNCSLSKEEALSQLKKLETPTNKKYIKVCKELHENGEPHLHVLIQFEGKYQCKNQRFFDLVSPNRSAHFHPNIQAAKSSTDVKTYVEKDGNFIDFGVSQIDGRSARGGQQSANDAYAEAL
Test: uncleaved DNA left, log2 of reads against the no-enzyme library (log2 ratio); higher = less cleavage (more negative = more Rep cleavage of the k-mer); sequences stand for … in CTCGTCCG…ACCGGAGA
Protocol: (§1)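 A pool of 90-nt single-stranded DNAs with seven random bases just before the constant AC of the nick site (name = the seven bases) was cut by 3 µM recombinant His6-SUMO-tagged Rep nickase domain (300 nM DNA, 50 mM HEPES pH 8.0, 50 mM NaCl, 1 mM MnCl2, 1 h, 37 °C, three replicates). Uncut DNA was amplified and sequenced.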

| Sequence | uncleaved DNA left (log2) |
| --- | --- |
| TCTGGTT | -0.0567 |
| CAAGCTA | -0.31 |
| AAGATCT | 0.017 |
| CCACGGG | 0.0234 |
| CCTTACA | 0.163 |
| GCCGATT | -0.087 |
| ACGTATC | -0.0059 |
| GGGATGT | -0.057 |
| CCCAAAG | 0.149 |
| GTTTGCA | 0.0586 |
| CGGCGCC | -0.00279 |
| CCTAGGA | 0.0265 |
| GGGTCCT | 0.0629 |
| GGCCTGC | 0.022 |
| GTAAGGC | 0.00858 |
| CCTCTGC | -0.174 |
| AAAGCAA | -0.00688 |
| CGCCTCT | -0.179 |
| CCGTCAG | 0.00387 |
| AACACAA | -0.145 |

| Sequence | uncleaved DNA left (log2) |
| --- | --- |
| AGTCCGG | 0.0214 |
| AACCATG | 0.0853 |
| GTAATGG | -0.0132 |
| TGGCCGG | 0.092 |
| ATACATC | 0.0199 |
| TTTGCCC | 0.00403 |
| CTATCTT | 0.0143 |
| AGTGATG | -0.114 |
| GGACACA | -0.0924 |
| AGAAGAG | 0.0412 |
| GAGCCAC | -0.0417 |
| GCAACTA | 0.0705 |
| CAAATGT | 0.0138 |
| CATGGCG | 0.0833 |
| ATTCACC | -0.00255 |
| GACTACC | -0.0966 |
| GCAGGTA | 0.0543 |
| GAGCCAG | 0.0401 |
| CCGATAC | -0.188 |
| GAGGTCC | 0.0021 |

Tested on: T2, Rep nickase domain of wheat dwarf virus
T2 sequence (protein, residues 1-137, tag omitted): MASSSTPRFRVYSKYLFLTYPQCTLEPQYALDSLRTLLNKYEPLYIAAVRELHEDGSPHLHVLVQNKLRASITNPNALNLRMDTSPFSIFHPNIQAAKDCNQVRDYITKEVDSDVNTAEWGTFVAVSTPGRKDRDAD
Test: as above
Protocol: as §1

| Sequence | uncleaved DNA left (log2) |
| --- | --- |
| TCTGGTT | -0.142 |
| CAAGCTA | -0.11 |
| AAGATCT | 0.0415 |
| CCACGGG | -0.017 |
| CCTTACA | 0.0771 |
| GCCGATT | -0.146 |
| ACGTATC | 0.0806 |
| GGGATGT | 0.0409 |
| CCCAAAG | -0.00669 |
| GTTTGCA | -0.0631 |
| CGGCGCC | -0.0556 |
| CCTAGGA | -0.071 |
| GGGTCCT | 0.119 |
| GGCCTGC | 0.00398 |
| GTAAGGC | 0.00357 |
| CCTCTGC | -0.327 |
| AAAGCAA | 0.0536 |
| CGCCTCT | -0.0903 |
| CCGTCAG | -0.159 |
| AACACAA | -0.118 |

| Sequence | uncleaved DNA left (log2) |
| --- | --- |
| AGTCCGG | 0.00668 |
| AACCATG | 0.106 |
| GTAATGG | -0.00807 |
| TGGCCGG | 0.0888 |
| ATACATC | 0.0175 |
| TTTGCCC | -0.0909 |
| CTATCTT | -0.509 |
| AGTGATG | -0.0504 |
| GGACACA | 0.237 |
| AGAAGAG | 0.05 |
| GAGCCAC | 0.0334 |
| GCAACTA | 0.0769 |
| CAAATGT | -0.367 |
| CATGGCG | -0.129 |
| ATTCACC | 0.0491 |
| GACTACC | -0.00773 |
| GCAGGTA | -0.0222 |
| GAGCCAG | 0.0939 |
| CCGATAC | -0.163 |
| GAGGTCC | 0.18 |
